# Measurements taken from the supplement of paper PMC8728848.
# This is one part of the list.
# B1: EULS2 M2 (Oryza sativa) (protein)
# chain: MVYCRANPNYAMTARNGAVVLAPANPKDEYQHWIKDMRWSTSIKDEEGYPAFALVNKATGQAIKHSLGQSHPVRLVPYNPEVMDESVLWTESRDVGNGFRCIRMVNNIYLNFDAFHGDKYHGGVRDGTDIVLWKLCEGDSQRWKIQPYYILEQKLISEEDLNSAVDHHHHHH
# What was measured:
# Experiment in all cases: glycan array binding signal (z-score within array); higher = stronger binding
# Conditions in all cases: glycan notation: IUPAC condensed, linker removed
# Fuc(a1-2)Gal = molecular target: Fuc(a1-2)Gal
# How it was run: (§1)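 From the Consortium for Functional Glycomics database, 3228 arrays were curated, keeping only those whose protein sequence was available. Binding is given as a within-array Z-score averaged across arrays sharing a protein sequence and across linkers. Negative Z-scores can be read as non-binding.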
# Fuc(a1-2)Gal(b1-3)GalNAc = molecular target: Fuc(a1-2)Gal(b1-3)GalNAc
# How it was run: as §1
# [1] = molecular target: Fuc(a1-2)Gal(b1-3)GalNAc(a1-3)[Fuc(a1-2)]Gal(b1-4)Glc
# How it was run: as §1
# [2] = molecular target: Fuc(a1-2)Gal(b1-3)GalNAc(a1-3)[Fuc(a1-2)]Gal(b1-4)GlcNAc
# How it was run: as §1
# [3] = molecular target: Fuc(a1-2)Gal(b1-3)GalNAc(b1-3)Gal
# How it was run: as §1
# [4] = molecular target: Fuc(a1-2)Gal(b1-3)GalNAc(b1-3)Gal(a1-4)Gal(b1-4)Glc
# How it was run: as §1
# [5] = molecular target: Fuc(a1-2)Gal(b1-3)GalNAc(b1-4)[Neu5Ac(a2-3)]Gal(b1-4)Glc
# How it was run: as §1
# Fuc(a1-2)Gal(b1-3)GlcNAc = molecular target: Fuc(a1-2)Gal(b1-3)GlcNAc
# How it was run: as §1
# [6] = molecular target: Fuc(a1-2)Gal(b1-3)GlcNAc(b1-2)Man(a1-3)[Fuc(a1-2)Gal(b1-3)GlcNAc(b1-2)Man(a1-6)]Man(b1-4)GlcNAc(b1-4)GlcNAc
# How it was run: as §1
# [7] = molecular target: Fuc(a1-2)Gal(b1-3)GlcNAc(b1-2)Man(a1-3)[Fuc(a1-2)Gal(b1-3)GlcNAc(b1-2)Man(a1-6)]Man(b1-4)GlcNAc(b1-4)[Fuc(a1-6)]GlcNAc
# How it was run: as §1
# [8] = molecular target: Fuc(a1-2)Gal(b1-3)GlcNAc(b1-3)Gal(b1-4)Glc
# How it was run: as §1
# [9] = molecular target: Fuc(a1-2)Gal(b1-3)GlcNAc(b1-3)GalNAc
# How it was run: as §1
# [10] = molecular target: Fuc(a1-2)Gal(b1-3)GlcNAc(b1-3)[Fuc(a1-2)Gal(b1-3)GlcNAc(b1-6)]GalNAc
# How it was run: as §1
# [11] = molecular target: Fuc(a1-2)Gal(b1-3)GlcNAc(b1-3)[Gal(b1-4)GlcNAc(b1-6)]Gal(b1-4)Glc
# How it was run: as §1
# [12] = molecular target: Fuc(a1-2)Gal(b1-3)GlcNAc(b1-3)[Neu5Ac(a2-6)Gal(b1-4)GlcNAc(b1-6)]Gal(b1-4)Glc
# How it was run: as §1
# [13] = molecular target: Fuc(a1-2)Gal(b1-3)GlcNAc6S
# How it was run: as §1
# [14] = molecular target: Fuc(a1-2)Gal(b1-3)[Fuc(a1-4)]GlcNAc
# How it was run: as §1
# [15] = molecular target: Fuc(a1-2)Gal(b1-3)[Fuc(a1-4)]GlcNAc(b1-2)Man(a1-3)[Fuc(a1-2)Gal(b1-3)[Fuc(a1-4)]GlcNAc(b1-2)Man(a1-3)]Man(b1-4)GlcNAc(b1-4)GlcNAc
# How it was run: as §1
# [16] = molecular target: Fuc(a1-2)Gal(b1-3)[Fuc(a1-4)]GlcNAc(b1-2)Man(a1-3)[Fuc(a1-2)Gal(b1-3)[Fuc(a1-4)]GlcNAc(b1-2)Man(a1-6)]Man(b1-4)GlcNAc(b1-4)[Fuc(a1-6)]GlcNAc(b1-4)[Fuc(a1-6)]GlcNAc
# How it was run: as §1
# [17] = molecular target: Fuc(a1-2)Gal(b1-3)[Fuc(a1-4)]GlcNAc(b1-3)[Fuc(a1-3)[Gal(b1-4)]GlcNAc(b1-6)]Gal(b1-4)Glc
# How it was run: as §1
# [18] = molecular target: Fuc(a1-2)Gal(b1-3)[Fuc(a1-4)]GlcNAc(b1-3)[Gal(b1-4)GlcNAc(b1-6)]Gal(b1-4)Glc
# How it was run: as §1
# Fuc(a1-2)Gal(b1-4)Glc = molecular target: Fuc(a1-2)Gal(b1-4)Glc
# How it was run: as §1
# Fuc(a1-2)Gal(b1-4)Glc6S = molecular target: Fuc(a1-2)Gal(b1-4)Glc6S
# How it was run: as §1
# Fuc(a1-2)Gal(b1-4)GlcNAc = molecular target: Fuc(a1-2)Gal(b1-4)GlcNAc
# How it was run: as §1
# [19] = molecular target: Fuc(a1-2)Gal(b1-4)GlcNAc(b1-2)Man
# How it was run: as §1
# [20] = molecular target: Fuc(a1-2)Gal(b1-4)GlcNAc(b1-2)Man(a1-3)[Fuc(a1-2)Gal(b1-4)GlcNAc(b1-2)Man(a1-6)]Man(b1-4)GlcNAc(b1-4)GlcNAc
# How it was run: as §1
# [21] = molecular target: Fuc(a1-2)Gal(b1-4)GlcNAc(b1-2)Man(a1-3)[Fuc(a1-2)Gal(b1-4)GlcNAc(b1-2)Man(a1-6)]Man(b1-4)GlcNAc(b1-4)[Fuc(a1-6)]GlcNAc
# How it was run: as §1
# [22] = molecular target: Fuc(a1-2)Gal(b1-4)GlcNAc(b1-2)[Fuc(a1-2)Gal(b1-4)GlcNAc(b1-4)]Man(a1-3)[Fuc(a1-2)Gal(b1-4)GlcNAc(b1-2)Man(a1-6)]Man(b1-4)GlcNAc(b1-4)GlcNAc
# How it was run: as §1
# [23] = molecular target: Fuc(a1-2)Gal(b1-4)GlcNAc(b1-3)Gal(b1-4)GlcNAc
# How it was run: as §1
# [24] = molecular target: Fuc(a1-2)Gal(b1-4)GlcNAc(b1-3)Gal(b1-4)GlcNAc(b1-2)Man(a1-3)[Fuc(a1-2)Gal(b1-4)GlcNAc(b1-3)Gal(b1-4)GlcNAc(b1-2)Man(a1-6)]Man(b1-4)GlcNAc(b1-4)GlcNAc
# How it was run: as §1
# [25] = molecular target: Fuc(a1-2)Gal(b1-4)GlcNAc(b1-3)Gal(b1-4)GlcNAc(b1-3)Gal(b1-4)GlcNAc
# How it was run: as §1
# [26] = molecular target: Fuc(a1-2)Gal(b1-4)GlcNAc(b1-3)GalNAc
# How it was run: as §1
# [27] = molecular target: Fuc(a1-2)Gal(b1-4)GlcNAc(b1-3)[Fuc(a1-2)Gal(b1-4)GlcNAc(b1-6)]GalNAc
# How it was run: as §1
# [28] = molecular target: Fuc(a1-2)Gal(b1-4)GlcNAc(b1-3)[Fuc(a1-3)[Gal(b1-4)]GlcNAc(b1-6)]Gal(b1-4)Glc
# How it was run: as §1
# [29] = molecular target: Fuc(a1-2)Gal(b1-4)GlcNAc(b1-6)GalNAc
# How it was run: as §1
# [30] = molecular target: Fuc(a1-2)Gal(b1-4)GlcNAc6S
# How it was run: as §1
# [31] = molecular target: Fuc(a1-2)Gal(b1-4)[Fuc(a1-3)]GlcNAc
# How it was run: as §1
# [32] = molecular target: Fuc(a1-2)Gal(b1-4)[Fuc(a1-3)]GlcNAc(b1-2)Man(a1-3)[Fuc(a1-2)Gal(b1-4)[Fuc(a1-3)]GlcNAc(b1-2)Man(a1-6)]Man(b1-4)GlcNAc(b1-4)[Fuc(a1-6)]GlcNAc
# How it was run: as §1
# [33] = molecular target: Fuc(a1-2)Gal(b1-4)[Fuc(a1-3)]GlcNAc(b1-2)[Fuc(a1-2)Gal(b1-4)[Fuc(a1-3)]GlcNAc(b1-4)]Man(a1-3)[Fuc(a1-2)Gal(b1-4)[Fuc(a1-3)]GlcNAc(b1-2)Man(a1-6)]Man(b1-4)GlcNAc(b1-4)GlcNAc
# How it was run: as §1
# [34] = molecular target: Fuc(a1-2)Gal(b1-4)[Fuc(a1-3)]GlcNAc(b1-3)Gal(b1-4)[Fuc(a1-3)]GlcNAc
# How it was run: as §1
# [35] = molecular target: Fuc(a1-2)Gal(b1-4)[Fuc(a1-3)]GlcNAc(b1-3)Gal(b1-4)[Fuc(a1-3)]GlcNAc(b1-3)Gal(b1-4)[Fuc(a1-3)]GlcNAc
# How it was run: as §1
# [36] = molecular target: Fuc(a1-2)Gal(b1-4)[Fuc(a1-3)]GlcNAc(b1-3)GalNAc
# How it was run: as §1
# [37] = molecular target: Fuc(a1-2)Gal(b1-4)[Fuc(a1-3)]GlcNAc(b1-3)[Neu5Ac(a2-6)Gal(b1-4)GlcNAc(b1-6)]Gal(b1-4)Glc
# How it was run: as §1
# [38] = molecular target: Fuc(a1-2)Gal3S(b1-4)GlcNAc
# How it was run: as §1
# [39] = molecular target: Fuc(a1-2)Gal6S(b1-3)GlcNAc
# How it was run: as §1
binder,measurement,setting,value
B1,glycan array binding signal (z-score),Fuc(a1-2)Gal,-0.308
same,glycan array binding signal (z-score),Fuc(a1-2)Gal(b1-3)GalNAc,-0.33
same,glycan array binding signal (z-score),[1],-0.34
same,glycan array binding signal (z-score),[2],-0.26
same,glycan array binding signal (z-score),[3],0.052
same,glycan array binding signal (z-score),[4],-0.02
same,glycan array binding signal (z-score),[5],-0.129
same,glycan array binding signal (z-score),Fuc(a1-2)Gal(b1-3)GlcNAc,0.346
same,glycan array binding signal (z-score),[6],2.57
same,glycan array binding signal (z-score),[7],-0.266
same,glycan array binding signal (z-score),[8],-0.208
same,glycan array binding signal (z-score),[9],-0.533
same,glycan array binding signal (z-score),[10],-0.623
same,glycan array binding signal (z-score),[11],0.456
same,glycan array binding signal (z-score),[12],-0.382
same,glycan array binding signal (z-score),[13],0.296
same,glycan array binding signal (z-score),[14],0.051
same,glycan array binding signal (z-score),[15],0.103
same,glycan array binding signal (z-score),[16],0.849
same,glycan array binding signal (z-score),[17],-0.182
same,glycan array binding signal (z-score),[18],-0.265
same,glycan array binding signal (z-score),Fuc(a1-2)Gal(b1-4)Glc,0.089
same,glycan array binding signal (z-score),Fuc(a1-2)Gal(b1-4)Glc6S,-0.25
same,glycan array binding signal (z-score),Fuc(a1-2)Gal(b1-4)GlcNAc,-0.384
same,glycan array binding signal (z-score),[19],-0.221
same,glycan array binding signal (z-score),[20],0.692
same,glycan array binding signal (z-score),[21],-0.072
same,glycan array binding signal (z-score),[22],-0.044
same,glycan array binding signal (z-score),[23],-0.35
same,glycan array binding signal (z-score),[24],-0.268
same,glycan array binding signal (z-score),[25],-0.572
same,glycan array binding signal (z-score),[26],-0.499
same,glycan array binding signal (z-score),[27],-0.42
same,glycan array binding signal (z-score),[28],-0.337
same,glycan array binding signal (z-score),[29],-0.191
same,glycan array binding signal (z-score),[30],0.018
same,glycan array binding signal (z-score),[31],0.039
same,glycan array binding signal (z-score),[32],-0.258
same,glycan array binding signal (z-score),[33],-0.119
same,glycan array binding signal (z-score),[34],-0.078
same,glycan array binding signal (z-score),[35],0.542
same,glycan array binding signal (z-score),[36],-0.203
same,glycan array binding signal (z-score),[37],-0.288
same,glycan array binding signal (z-score),[38],-0.237
same,glycan array binding signal (z-score),[39],-0.175
